Measured values as given in PubChem BioAssay AID588855 (National Center for Advancing Translational Sciences (NCATS), 2011).
Hit rate of the full screen: of about 410,000 compounds, about 5,000 (1.2%) were called active. The shares of active, inactive and inconclusive entries below differ from those in the screen. Calls follow the shape of the dose curve; as a rule, active = well fitted inhibition curve with a large enough effect; inconclusive = small, poorly fitted or top-dose-only effect; inactive = no such curve, though single readings can be large or run the other way. Potencies beside an inconclusive call are fits to weak or partial responses and may not hold up.

Experiment: qHTS for Inhibitors of TGF-b; also: nearly all actives have a fitted effect of over 65% in size
Settings: HepG2 CAGA-GFP TGF-b/SMAD3 reporter, GFP fluorescence, 18 h, TGF-beta stimulated, 500 pg/mL final; series mostly up to 46.1 µM
Summary of the method: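 Read-out: total well GFP (ex488/em500-530) summed from mean per-cell fluorescence. Cells: HEPG2 CAGA-GFP, 1% FBS DMEM, 18 h at 37 degrees C with 500 pg/mL final TGF-beta. Unstimulated wells served as the full-inhibition control; stimulated DMSO wells = 0%.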
Potency is read from the fitted curve at half-maximal effect; tags tell the direction and shape of the fitted curve.

**Q.** With `CCOC(=O)c1cccc(NC(=O)CCn2nc(C)c3c(C)n(-c4ccccc4)nc3c2=O)c1` as the molecule, how does the Potency read?
**A.** inactive

**Q.** For `CCCc1cc(O)c2c(C)cc(=O)oc2c1`, which Potency is on record?
**A.** inconclusive: 12.6 µM [inhibitor, partial curve, poor fit]

**Q.** With `CCc1c(C)nc2ccc(Br)cc2c1SCCC#N` as the molecule, how does the Potency read?
**A.** inconclusive: 25.1 µM [inhibitor, single point]

**Q.** Which Potency does the source give for `CC(Sc1ccc(Cl)cc1)C(=O)NCC(c1ccco1)N1CCCCC1` (stereo not given) here?
**A.** inactive

**Q.** With `O=C(CCCN1C(=O)c2cccc3cccc(c23)C1=O)NCc1cccnc1` as the molecule, how does the Potency read?
**A.** inactive

**Q.** For `O=C(OCC1OC(n2cnc3c(N(C(=O)c4ccccc4)C(=O)c4ccccc4)ncnc32)C(O)C1F)c1ccccc1` (stereo not given), which Potency is on record?
**A.** inconclusive: 15.8 µM [inhibitor, single point]

**Q.** For `Cc1ccc(Cn2c(=O)n(CC3CCC(C(=O)N4CCOCC4)CC3)c(=O)c3sccc32)cc1` (stereo not given), which Potency is on record?
**A.** inactive

**Q.** Which Potency does the source give for `C(=C1c2ccccc2-c2ccccc21)c1ccncc1` here?
**A.** inconclusive: 35.5 µM [inhibitor, single point]

**Q.** With `O=C(Cn1nc(C(F)(F)F)c2c1CCCC2)N1CCOCC1` as the molecule, how does the Potency read?
**A.** inactive

**Q.** For `S=C(Nc1cc(Cl)ccc1Oc1ccccc1)N1CCN(c2ccccn2)CC1`, which Potency is on record?
**A.** inconclusive: 25.1 µM [inhibitor, single point]

**Q.** With `OCC1(Cc2ccccc2)CCN(Cc2ccc(-c3ccco3)cc2)CC1` as the molecule, how does the Potency read?
**A.** inconclusive: 35.5 µM [inhibitor, single point]

**Q.** Which Potency does the source give for `CCOC(=O)c1cnc(SC)nc1Oc1cccc(NS(=O)(=O)c2ccc(F)cc2)c1` here?
**A.** inactive

**Q.** With `COc1cccc(/C=C/c2ccc3cccc(O)c3n2)c1OC` as the molecule, how does the Potency read?
**A.** inconclusive: 7.08 µM [inhibitor, partial curve]

**Q.** Which Potency does the source give for `COc1ccc(-c2nn(-c3ccccc3)cc2/C=C2/SC(=S)N(CCCC(=O)O)C2=O)c(C)c1` here?
**A.** inconclusive: 35.5 µM [inhibitor, single point]

**Q.** With `Cc1nc2sccn2c(=O)c1S(=O)(=O)NCc1ccccc1Cl` as the molecule, how does the Potency read?
**A.** inconclusive: 35.5 µM [inhibitor, single point]

**Q.** Which Potency does the source give for `COc1ccc2nc(N3CCN(C(=O)C4CC4)CC3)sc2c1` here?
**A.** inconclusive: 6.31 µM [inhibitor, single point]

**Q.** With `COc1cc(OC)c2c(C)cc(=O)oc2c1` as the molecule, how does the Potency read?
**A.** inconclusive: 3.98 µM [inhibitor, single point]

**Q.** With `Cc1cccc(C)c1NC(=O)CNC(=O)C(C)N(C)CC(=O)Nc1ccc(F)cc1` (stereo not given) as the molecule, how does the Potency read?
**A.** inconclusive: 35.5 µM [inhibitor, single point]

**Q.** Which Potency does the source give for `COC(C/C=C/C(=O)[C@H](C)OCc1ccccc1)OC` here?
**A.** inconclusive: 15.8 µM [inhibitor, partial curve, poor fit]

**Q.** With `CCc1cccc(NC(=O)CN2CCCN(Cc3cccc(C)c3)S2(=O)=O)c1` as the molecule, how does the Potency read?
**A.** inconclusive: 35.5 µM [inhibitor, single point]

**Q.** With `COc1cccc(-c2ccc(NC(=O)C3CCCN(CCCn4nc(C)cc4C)C3)cc2)c1` (stereo not given) as the molecule, how does the Potency read?
**A.** inconclusive: 25.1 µM [inhibitor, single point]

**Q.** Which Potency does the source give for `CCOC(=O)C1CCN(S(=O)(=O)c2ccc(OC)c(Cl)c2)CC1` here?
**A.** inconclusive: 3.98 µM [inhibitor, single point]

**Q.** Which Potency does the source give for `O=C(c1sc2ccccc2c1Cl)N(Cc1cccs1)C1CCS(=O)(=O)C1` (stereo not given) here?
**A.** inconclusive: 5.62 µM [inhibitor, single point]

**Q.** With `COc1ccccc1CNS(=O)(=O)c1ccc2c(c1)CC(C)N2C(=O)C1CC1` (stereo not given) as the molecule, how does the Potency read?
**A.** inconclusive: 10 µM [inhibitor, partial curve]

**Q.** Which Potency does the source give for `COc1cc(/C=C(\C#N)C(=O)Nc2cccc(C(=O)O)c2)ccc1OCc1ccc(C)cc1` here?
**A.** inconclusive: 7.08 µM [inhibitor, full curve, poor fit]

**Q.** Which Potency does the source give for `CSCCC(NS(=O)(=O)c1cccc(C(F)(F)F)c1)C(=O)Nc1ccccc1N1CCCC1` (stereo not given) here?
**A.** active: 14.1 µM

**Q.** For `COc1ccccc1-c1csc2ncnc(Sc3nnnn3C)c12`, which Potency is on record?
**A.** inconclusive: 35.5 µM [inhibitor, partial curve, poor fit]

**Q.** For `C#CCOCCOCCOCCNc1nc(N2CCN(C(=O)CCCCCCCCCCNC(=O)[C@H](CO)n3cc(CCCSC)nn3)CC2)nc(N2CCN(C(=O)CCCCCCCCCCNC(=O)[C@H](CCCN=C(N)N)n3cc(C[C@@H](C)CC)nn3)CC2)n1`, which Potency is on record?
**A.** inconclusive: 20 µM [inhibitor, partial curve, poor fit]

**Q.** For `COc1ccc(CC(=O)Nc2ccccc2C(=O)NCCc2ccccc2)cc1`, which Potency is on record?
**A.** inconclusive: 7.08 µM [inhibitor, partial curve]

**Q.** For `O=C1N[C@H](Cc2ccccc2)COC(=O)[C@H](Cc2ccc(F)cc2)C/C=C\C[C@H]1CC(=O)N(CCO)Cc1ccccc1`, which Potency is on record?
**A.** inconclusive: 10 µM [inhibitor, single point]

**Q.** For `COc1cccc(N2CCN(C(=S)Nc3ccccc3)CC2)c1`, which Potency is on record?
**A.** inactive

**Q.** Which Potency does the source give for `CCOc1ccc(NC(=S)NC(=O)c2c(Cl)cnn2CC)c([N+](=O)[O-])c1` here?
**A.** inactive

**Q.** With `COc1ccc(Nc2ncc(C(=O)N3CCN(Cc4ccccc4)CC3)c3ccccc23)cc1` as the molecule, how does the Potency read?
**A.** inconclusive: 35.5 µM [inhibitor, single point]

**Q.** Which Potency does the source give for `CN(NC(=S)Nc1ccc(OC(F)F)cc1)C(=S)Nc1ccc(OC(F)F)cc1` here?
**A.** inconclusive: 35.5 µM [inhibitor, single point]

**Q.** Which Potency does the source give for `CC(Sc1nnc(-c2ccc(O)cc2)o1)C(=O)Nc1cccc2ccccc12` (stereo not given) here?
**A.** inconclusive: 0.447 µM [inhibitor, full curve, poor fit]

**Q.** With `CCCCn1cc(C(=O)c2cc(Br)ccc2O)cc(C#N)c1=O` as the molecule, how does the Potency read?
**A.** inconclusive: 20 µM [inhibitor, single point]

**Q.** With `COc1ccc(C)cc1NC(=O)CN(c1cc(C(F)(F)F)ccc1Cl)S(C)(=O)=O` as the molecule, how does the Potency read?
**A.** inconclusive: 17.8 µM [inhibitor, single point]

**Q.** For `COCCNC(=O)C(=O)NCC1OCCN1S(=O)(=O)c1cc(F)ccc1F` (stereo not given), which Potency is on record?
**A.** inactive

**Q.** Which Potency does the source give for `CCOC(=O)C1=C(CS(=O)(=O)c2ccc(Br)cc2)NC(=O)NC1c1ccccc1` (stereo not given) here?
**A.** inconclusive: 35.5 µM [inhibitor, single point]

**Q.** With `CC(=O)Nc1ccc(S(=O)(=O)Nc2ccc3c(c2)OCCO3)cc1Cl` as the molecule, how does the Potency read?
**A.** inactive
